Laboratory results published in the supplement of paper PMC10126150.
Sequences with one replicate were seen in a single cluster, so their values are uncertain.

System: ATP
Assay: switch fluorescence ratio, 500 uM ATP over buffer (Cy3 cluster intensity, sum of 5 cycles each) (fold (ratio)); higher = stronger signal-on switching upon ATP binding; sequences stand for … in TCGTCGGCAGCGTCAGATGTGTATAAGAGACAGTTTTTTTTTTTTTTTTTTTTTTTTT…TC
Conditions: aptamer strand: ATP DNA aptamer (quencher-CACCTGGGGGAGTATTGCGGAGGAAGG + anchor), 100 nM annealed; ATP concentration: 500 uM; one replicate
Outline: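 The fluorescence ratio divides summed target-cycle Cy3 intensity by summed buffer-cycle Cy3 intensity for each cluster and is averaged per switch-domain sequence. Cy3-labelled switching-strand clusters on a modified Illumina MiSeq flow-cell were annealed to 100 nM quencher-labelled ATP aptamer, then imaged in selection buffer and again after 15 min with 500 uM ATP at 22 °C. Five such cycles were run, with NaOH stripping and re-annealing between them, and clusters outside 100-1000 RFU were excluded.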
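Further: ATP exposure 15 min at 22 °C before imaging.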

Row | Sequence | switch fluorescence ratio
1 | TCGGGCTTGC | 1.05
2 | GCTAGAGAGA | 0.962
3 | CGATCAATAA | 1.84
4 | AATCCTTGGA | 0.955
5 | GCTTGGGTCG | 1.02
6 | AGCCACCTCG | 1.02
7 | CTTTACTGC | 1.01
8 | GCGGATCACC | 1.02
9 | TTCGAAAGA | 1.02
10 | AATTTCAGCA | 0.981
11 | CATCGAGAGC | 0.958
12 | AGTATTGTAT | 0.996
13 | ACTCTGCGCT | 1.36
14 | GCAATGGCTC | 2.67
15 | GATGTGGTTG | 1.05
16 | AATCATCTGG | 1.09
17 | AAGCTGCGTG | 1.01
18 | ACCCTGCATA | 1.45
19 | TAAATAGAT | 1.01
20 | GCTTTAAAGA | 0.964
21 | CTCTTATAGG | 0.965
22 | GCCATCATGA | 0.997
23 | CACCCGAGTA | 1.03
24 | TTCTGGAGAG | 1.01
25 | TGGTGCCAAA | 1.04
26 | CTGTTTGCAA | 1.74

Row | Sequence | switch fluorescence ratio
27 | ATTCAGTGT | 1.01
28 | GGTCGCGGGA | 1.02
29 | GTGATAAAAG | 1.09
30 | GGGCATGGAT | 0.976
31 | AATCCTCCA | 1
32 | TCCTAATCTA | 0.959
33 | GTAGATGTAA | 1.02
34 | ATGTGAGGAG | 1.05
35 | TCATATTCT | 1.03
36 | ACAGAGTTAC | 1.03
37 | TTCATCTTAC | 1.09
38 | TCCCGCCCGG | 1.02
39 | GTTATATAGC | 1
40 | GAGTTTGATA | 1.04
41 | CTGGTGCTAG | 0.983
42 | ATTTGGATAG | 1.02
43 | ACGACAACAG | 1.23
44 | CATGCTTTCG | 0.979
45 | ATTTTCGAGG | 0.972
46 | GTTCCTTGTA | 0.99
47 | AGTTACCCAA | 1.03
48 | GGACGCCGCC | 1.05
49 | ATGACTAGCT | 1.02
50 | TGCGTTAACC | 0.998
51 | ATATAGCTTA | 1.02
52 | CTTGGGTTC | 1.01

Row | Sequence | switch fluorescence ratio
53 | GGCCCTACTT | 1.01
54 | AGGATTAGAA | 0.99
55 | AGGATTTCCG | 0.977
56 | CCTAGGTGGT | 1.03
57 | AGGCATGACA | 0.98
58 | TACCCATGAG | 1.01
59 | GGTGGGAGG | 1
60 | ACATTTCGG | 0.993
61 | TGGTAGCAAA | 1.02
62 | TTAATTACAA | 0.982
63 | ATCGTTATGT | 0.966
64 | TAAATGTCAG | 1.03
65 | AAACGAGAG | 1.06
66 | GACTAACCCG | 1.11
67 | CCGATCTCTA | 1.1
68 | TCGGGGGCCC | 0.988
69 | AGAGTGGGAG | 0.968
70 | CGTAAGGCCT | 0.996
71 | CACGTTTTAG | 1.03
72 | CGTGGCCGTC | 0.981
73 | CGGTAGATTG | 1.01
74 | GGACTAGAGT | 1.01
75 | CGCGCCTCGC | 1.04
76 | TTCTCTCCCG | 1.11
77 | AGACAGCCCA | 1.1
78 | TTAAAATCCA | 0.972

Row | Sequence | switch fluorescence ratio
79 | AAAGTGATCG | 1.02
80 | GTGGCAGCAG | 0.994
81 | TAAAGAGCCG | 0.989
82 | GGATGCCCCG | 0.954
83 | GACCGCGCGC | 1.01
84 | CATCCATCGG | 1.01
85 | GTAATACGG | 1.31
86 | CGTGAACCGT | 1.04
87 | TATTACCTTT | 0.958
88 | GCTTAGGAGC | 0.993
89 | TTGCGGGCTT | 0.978
90 | TGGTAGCCGA | 0.969
91 | AGGCTGCAGA | 1.02
92 | GGGTCTGGGC | 1.02
93 | GCTCCAACGG | 1.12
94 | ATGCTTTTTC | 0.979
95 | TGTAAAATGG | 1.03
96 | GGGGGTGC | 1.02
97 | AATAGAACTC | 1.02
98 | AAGATTCATG | 0.995
99 | CTGGTTTCCT | 1.03
100 | ATCTATATGC | 1.03
101 | TATGCTGAGC | 0.988
102 | TTACACCCGT | 1.12
103 | TCCGAAGTCG | 1.46
104 | GGGCAAGCTA | 0.961

Row | Sequence | switch fluorescence ratio
105 | CGTGAGCCCA | 1.04
106 | GCGGTGCAAG | 0.993
107 | GTGGTCTGAT | 0.939
108 | TCATTAGGAC | 0.978
109 | TGGTCTGCGT | 1.01
110 | TATGTGGCGA | 1.01
111 | AGCCAGTCCT | 1.12
112 | AACCCTTGAA | 0.979
113 | CCTGTCTTTG | 1.04
114 | ATCGACGCTC | 3.64
115 | GATTGGTCTC | 1.01
116 | GACGATCACC | 1.5
117 | AATGTGAGTA | 0.97
118 | CGTATGAACT | 1
119 | CTGGGTCCAA | 1.01
120 | GCGAACGTTC | 1.02
121 | GAAGTACGTT | 1.18
122 | ATGGCCTGGT | 1.02
123 | TTTTTAGCTC | 4.07
124 | ACCCACGAAC | 1.34
125 | AGAAGGAAGA | 0.991
126 | CGATCTCTTT | 0.985
127 | AACCAAATCC | 1.1
128 | GCCTGAATCC | 1.38
129 | AAGGTTGGAC | 1.06
130 | GTGATGAGGT | 0.979

Row | Sequence | switch fluorescence ratio
131 | GTTTAGTTGA | 0.972
132 | ACCTAGATGG | 0.966
133 | ATCTCCAATC | 1.19
134 | CGCCAGGATC | 0.954
135 | GTCTCATATG | 0.977
136 | GCTGAATACG | 1.04
137 | TAAGAAACC | 1.35
138 | GAAACTGTCG | 1.15
139 | AATCTTCCGG | 1.46
140 | AAAGGAATGA | 0.996
141 | ACTTAAGGCT | 1.04
142 | CGCAGCAGCA | 1.59
143 | AACCGCTTAG | 1.28
144 | TCGTACCCTG | 0.982
145 | CTCGTAAAAC | 2.82
146 | TTGTGTTGCA | 0.966
147 | ACTAATAGAG | 0.999
148 | AATGGCGTGC | 0.994
149 | AGCTCATTTC | 0.998
150 | CATGCAACTT | 1.04
151 | GTGTATGGTA | 1.01
152 | GCAGCCATGA | 1.06
153 | GAGGGTTGAG | 0.986
